Results published in the supplement of paper PMC3334620.
Over roughly 33,000 sequences, “E-score (-0.5 to 0.5)” has its median near -0.011; the highest 2% begin near 0.28. The list shows a part of the results.

These sequences were tested against T1, Gcr1 (UniProt P07261) (assay: PBM E-score (8-mer binding enrichment) (E-score (-0.5 to 0.5)); higher = stronger / more preferred TF binding; most listed sequences are background and not binding sites). Conditions: protein concentration: 100 nM; construct: GST-full length.
T1 sequence: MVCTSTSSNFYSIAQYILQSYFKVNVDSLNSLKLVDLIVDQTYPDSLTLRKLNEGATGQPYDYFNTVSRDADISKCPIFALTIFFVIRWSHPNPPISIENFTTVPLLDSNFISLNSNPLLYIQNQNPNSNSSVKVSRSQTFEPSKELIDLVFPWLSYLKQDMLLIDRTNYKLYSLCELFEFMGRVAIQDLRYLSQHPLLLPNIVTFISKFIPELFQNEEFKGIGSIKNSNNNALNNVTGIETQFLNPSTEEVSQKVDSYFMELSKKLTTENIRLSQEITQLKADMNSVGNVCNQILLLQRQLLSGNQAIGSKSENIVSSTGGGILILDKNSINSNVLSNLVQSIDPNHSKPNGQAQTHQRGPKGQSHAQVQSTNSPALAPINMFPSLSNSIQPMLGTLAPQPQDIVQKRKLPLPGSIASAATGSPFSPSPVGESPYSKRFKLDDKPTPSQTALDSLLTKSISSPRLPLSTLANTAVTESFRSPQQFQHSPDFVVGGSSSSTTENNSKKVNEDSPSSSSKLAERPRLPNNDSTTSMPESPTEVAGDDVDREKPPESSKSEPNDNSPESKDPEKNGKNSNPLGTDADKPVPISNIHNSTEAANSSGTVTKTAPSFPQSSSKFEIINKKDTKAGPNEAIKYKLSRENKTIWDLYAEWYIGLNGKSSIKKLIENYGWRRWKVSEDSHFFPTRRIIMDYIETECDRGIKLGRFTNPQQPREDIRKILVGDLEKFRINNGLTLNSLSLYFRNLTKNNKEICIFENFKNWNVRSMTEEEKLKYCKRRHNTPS
Outline: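 The E-score, a modified Wilcoxon-Mann-Whitney statistic, was computed by the Universal PBM Analysis Suite for every ungapped eight-base word pooled with its reverse complement. Scans behind it were normalised with masliner after bound GST-tagged yeast transcription factors were detected with fluorescent anti-GST. The proteins, at about 100-200 nM, had been applied to universal all-10-mer Agilent arrays made double-stranded by primer extension.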

First: TGATAAAA
Second: CCAGCGAA
The “PBM E-score” value of the first is higher: -0.00242 for the first, -0.0416 for the second.

Going from CAGGTGAA to CAGATCCA, the “PBM E-score” value rises from 0.0398 to 0.185.

First: GCCGCCTA
Second: AGTTATCG
The “PBM E-score” value of the first is higher: 0.204 for the first, 0.0927 for the second.

Compared with CGTGGGGC, AAGCTAAT is lower in “PBM E-score” value: 0.00219 for the first, -0.00162 for the second.

Compared with ACCAACAT, CTGTGTAC is lower in “PBM E-score” value: 0.0288 for the first, -0.0302 for the second.

Going from CTATCGAG to CCGTACTC, the “PBM E-score” value rises from -0.167 to 0.0417.

Going from GGTCACCA to AAATAGTA, the “PBM E-score” value rises from -0.00517 to 0.0682.

Compared with ACTGTCTG, GTCAACAA is higher in “PBM E-score” value: -0.0381 for the first, -0.00849 for the second.

Compared with AGCCAGCC, CCAAAACC is higher in “PBM E-score” value: -0.0691 for the first, 0.0659 for the second.

Compared with GCCTGCCA, CATGTACC is higher in “PBM E-score” value: -0.0255 for the first, 0.194 for the second.

Compared with AGGCTAAT, CACGCTTA is lower in “PBM E-score” value: -0.0275 for the first, -0.17 for the second.

First: AATGCTGT
Second: CCCGAAAA
The “PBM E-score” value of the first is lower: -0.115 for the first, 0.162 for the second.

Compared with AGTGTGCC, CGGGGGTA is higher in “PBM E-score” value: -0.0804 for the first, -0.0719 for the second.

First: GGCAGTAA
Second: GCAGCACA
The “PBM E-score” value of the first is higher: -0.0223 for the first, -0.114 for the second.

Compared with ACCCGGAG, GCCGACAC is lower in “PBM E-score” value: 0.0468 for the first, 0.018 for the second.

First: GAGGATTA
Second: GAACTTGC
The “PBM E-score” value of the first is lower: -0.13 for the first, 0.0507 for the second.

First: CTTCGATA
Second: ACTGTAAA
The “PBM E-score” value of the first is lower: 0.0457 for the first, 0.0981 for the second.

Going from AAACCAAA to ATGGGTAG, the “PBM E-score” value falls from 0.066 to -0.0578.

Going from CATAAGAC to TGACCGAA, the “PBM E-score” value rises from -0.123 to -0.00849.

Going from ACTCAGCC to CCGTGCTA, the “PBM E-score” value rises from -0.0985 to 0.0646.

Going from ATACGTAG to GTTCTGCA, the “PBM E-score” value falls from 0.0454 to -0.0135.

Compared with GAGCATAA, AAATTTAA is higher in “PBM E-score” value: 0.0398 for the first, 0.15 for the second.

Going from AATTTCTG to ATGCTACG, the “PBM E-score” value falls from 0.182 to 0.0159.

Compared with AAACGTAC, CCCAGTCG is lower in “PBM E-score” value: -0.07 for the first, -0.078 for the second.

Compared with TCTCGTAA, GTATTCAC is lower in “PBM E-score” value: 0.114 for the first, -0.0109 for the second.

First: TGCTCCAA
Second: ATCACAGG
The “PBM E-score” value of the first is lower: -0.0556 for the first, 0.0448 for the second.

Compared with ACATGAAC, CAAGCGCA is lower in “PBM E-score” value: -0.0493 for the first, -0.128 for the second.

Going from CTTCTGAC to ACGAGCTG, the “PBM E-score” value rises from -0.158 to -0.0505.

Going from CCATAGGC to CAGGCTGA, the “PBM E-score” value falls from -0.00913 to -0.143.

Going from GAATGCTC to CGCCTCTC, the “PBM E-score” value rises from -0.194 to 0.0744.

Compared with TAAAGACA, CCACCAAC is higher in “PBM E-score” value: -0.255 for the first, -0.0849 for the second.

Compared with ATGAATGC, TCGCTACA is higher in “PBM E-score” value: 0.0536 for the first, 0.0704 for the second.

First: ACCGGCGT
Second: ATGACAAT
The “PBM E-score” value of the first is higher: 0.0406 for the first, -0.14 for the second.

Going from CTCATAAC to AGACCTCT, the “PBM E-score” value falls from 0.0143 to -0.26.

Compared with ACGCCTTC, ATAGGTAA is lower in “PBM E-score” value: 0.134 for the first, -0.0707 for the second.

First: CACGAATG
Second: CTTGAGAC
The “PBM E-score” value of the first is higher: 0.0475 for the first, -0.19 for the second.

Compared with CATGACCG, CGCAAAAC is higher in “PBM E-score” value: -0.0661 for the first, 0.0377 for the second.

First: ACTGCACT
Second: CGAATCGC
The “PBM E-score” value of the first is lower: -0.285 for the first, -0.147 for the second.

First: AGGGTGAT
Second: CTCACCGC
The “PBM E-score” value of the first is higher: -0.0437 for the first, -0.0683 for the second.

Compared with GCACCCGC, AGTTAATA is lower in “PBM E-score” value: 0.271 for the first, 0.103 for the second.

First: AGACAGCT
Second: ATAGGTCG
The “PBM E-score” value of the first is lower: -0.133 for the first, 0.0752 for the second.

First: ACACAAGG
Second: GGGAAGAA
The “PBM E-score” value of the first is higher: -0.0735 for the first, -0.14 for the second.

First: CATTATTC
Second: TCCTTCCA
The “PBM E-score” value of the first is higher: -0.0198 for the first, -0.116 for the second.
